Hit rate of the full screen: of about 120,000 compounds, about 5,300 (4.4%) were called active. This list was built around the results that the source calls inconclusive (neither active nor inactive); the mix of calls is not that of the screen. The call rests on the fitted dose curve; in most records, active means well fitted inhibition curve with a large enough effect; inconclusive means small, poorly fitted or top-dose-only effect; inactive means no such curve, though single readings can be large or run the other way. Potencies beside an inconclusive call are fits to weak or partial responses and may not hold up.
Assay: qHTS Primary assay for Inhibitors of Plasmodium falciparum Dd2 growth in vitro; further: nearly all actives have a fitted effect of over 65% in size;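 on activity, negative = inhibition: plate controls were DMSO vehicle for no effect and reference drug for full effect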
Settings: P. falciparum Dd2 growth, SYBR Green, 72 h; activity, negative = inhibition: at 28.9 µM (top of the series) unless noted; series mostly up to 28.9 µM
Summary of the method: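 Readout: SYBR Green fluorescence, 485 nm excitation, 535 nm emission, after ~16 h lysis at 37C. Before that, Dd2-infected red cells (2.5% hematocrit) grew 72 h with compound, 29 uM top final concentration.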
Potency means the concentration at half of the fitted maximal effect; tags describe the fitted curve by direction and shape.

Q: Which “activity, negative = inhibition” value does the source give for O=C(NC[C@H]1OC[C@@H](NC2CCCCC2)[C@@H]1O)C1CC1 here?
A: Its value is inactive: -11.7% [at 44.1 µM].

Q: For O=C(N[C@@H](Cn1cc(Cl)c(=O)[nH]c1=O)C(=O)O)C1CCCCC1, which Potency is on record?
A: The Potency was inconclusive: 7.08 µM [inhibitor, partial curve, poor fit].

Q: With CNC(=O)C(C)(C)N1CCC[C@H]1C(=O)N1CCOCC1 as the compound, how does the “activity, negative = inhibition” value read?
A: Its value is inactive: 23.6% [at 44.1 µM].

Q: Which Potency does the source give for CCN1C(=O)CCC2(C(=O)NCCc3c[nH]c4ccccc34)CCCC=C12 (stereo not given) here?
A: The Potency was inconclusive: 2.82 µM [inhibitor, partial curve, poor fit].

Q: For O=C(C1CCCCC1)N1CC[C@H](c2nc3ccccc3s2)C1, which “activity, negative = inhibition” value is on record?
A: Its value is inactive: -25.5% [at 44.1 µM].

Q: With COc1ccc(-c2cc(C[C@@H]3CC[C@H](O)[C@@H](CNC(=O)N4CCOCC4)O3)no2)cc1 as the compound, how does the “outcome” value read?
A: Its value is “inactive [at 44.1 µM]”.

Q: For COc1cc(OC)c(N(C)C(=O)Nc2cn(CC(C)C)c(=O)c3ccccc23)cc1Cl, which Potency is on record?
A: The Potency was inconclusive: 12.6 µM [inhibitor, partial curve, poor fit].

Q: Which Potency does the source give for COc1ccccc1/C=C/CN1CCCC(CNC(=O)COc2ccccc2OC)C1 (stereo not given) here?
A: The Potency was active: 7.94 µM.

Q: With NC(=O)c1cccc(CN2CCC3(Cc4ccccc4N(C(=O)c4ccc(Cl)cc4)C3)C2)c1 (stereo not given) as the compound, how does the Potency read?
A: The Potency was inconclusive: 7.08 µM [inhibitor, partial curve, poor fit].

Q: For COc1ccccc1C(=O)Nc1c(C(=O)NC(C)(C)C)oc2ccccc12, which Potency is on record?
A: Its Potency is inconclusive: 10 µM [inhibitor, single point].

Q: With O=C(N[C@@H]1CN(C(=O)c2nccc3ccccc23)CC[C@@H]1CO)C1CC1 as the compound, how does the “activity, negative = inhibition” value read?
A: Its value is inactive: 41.1%.

Q: Which Potency does the source give for COc1ccc(NC2=C(c3ccc(C(F)(F)F)cc3)C(=O)c3ccccc32)cc1 here?
A: Its Potency is active: 0.447 µM.

Q: With COc1ccc(-c2ccnc3nc(CC(C)C)nn23)c(F)c1 as the compound, how does the “activity, negative = inhibition” value read?
A: The value was inactive: -29.2%.

Q: Which Potency does the source give for COc1ccccc1-c1nc(C(=O)NCc2ccc3c(c2)OCO3)n2ccccc12 here?
A: Its Potency is inconclusive: 2.51 µM [inhibitor, single point].

Q: For Cc1ccc(NC(=O)/C=C/c2ccccc2Cl)cc1Cl, which Potency is on record?
A: Its Potency is active: 2.82 µM.

Q: Which “activity, negative = inhibition” value does the source give for Cc1cc(C)n(CCC(=O)N[C@@H]2CN(Cc3ccncc3)C[C@H]2CN(C)C)n1 here?
A: Its value is inactive: 7.2%.

Q: Which Potency does the source give for COc1ccc(N(C)C(=O)Cn2cc(S(=O)(=O)N3CCN(c4ccccc4F)CC3)c3ccccc3c2=O)c(OC)c1 here?
A: The Potency was inconclusive: 14.1 µM [inhibitor, single point].

Q: Which Potency does the source give for CN1CCC(C(=O)N2Cc3ccccc3CC3(CCCN(Cc4ccncc4)C3)C2)CC1 (stereo not given) here?
A: Its Potency is inconclusive: 5.01 µM [inhibitor, partial curve, poor fit].

Q: For COc1cc(F)ccc1-c1nccc2c(=O)cc(-c3cnn(C)c3)oc12, which Potency is on record?
A: Its Potency is inconclusive: 22.4 µM [inhibitor, single point].

Q: For CCc1nc(-c2c3n(c(=O)n(CC(=O)Nc4ccccc4)c2=O)CCCCC3)no1, which “activity, negative = inhibition” value is on record?
A: The value was inactive: -19%.

Q: Which Potency does the source give for Cc1ccc(-c2ccc3nnc(CNC(=O)COc4ccc(F)cc4)n3n2)cc1C here?
A: Its Potency is inconclusive: 10 µM [inhibitor, single point].

Q: Which Potency does the source give for Cc1ccccc1C(=O)N1CCc2c(nc(-c3ccncc3)nc2N(C)C)C1 here?
A: Its Potency is inconclusive: 20 µM [inhibitor, single point].

Q: Which Potency does the source give for CCc1nnc(NC(=O)CSc2nc3c([nH]c4ccccc43)c(=O)n2-c2ccc(Cl)cc2)s1 here?
A: Its Potency is inconclusive: 12.6 µM [inhibitor, single point].

Q: Which Potency does the source give for CCc1ccc(NC(=O)Cn2c(-c3cccc(Cl)c3)nc(C)c(CCO)c2=O)cc1 here?
A: Its Potency is inconclusive: 12.6 µM [inhibitor, partial curve, poor fit].

Q: With Cc1ccc(CN(C(=O)COc2ccccc2[N+](=O)[O-])c2ccccn2)o1 as the compound, how does the Potency read?
A: The Potency was inconclusive: 1 µM [inhibitor, single point].

Q: For O=C1Nc2ccc(/C=C/c3ccccc3)cc2C(=O)N2CC[C@H](NS(=O)(=O)c3cccs3)[C@@H]12, which Potency is on record?
A: The Potency was inconclusive: 11.2 µM [inhibitor, single point].

Q: For CCN1C(=O)CCC2(C(=O)Nc3ccc(C)cc3)CCCC=C12 (stereo not given), which “activity, negative = inhibition” value is on record?
A: The value was inactive: -17%.

Q: For Cc1csc2nc(COC(=O)CNC(=O)c3ccccc3)cc(=O)n12, which “activity, negative = inhibition” value is on record?
A: The value was inactive: 7.01%.

Q: With O=C(C1CCCC1)N1CC2(CCN(Cc3ccccn3)CC2)Cc2ccccc21 as the compound, how does the Potency read?
A: The Potency was active: 10 µM.

Q: Which Potency does the source give for O=C(CSc1ncccc1C(=O)Oc1ccccc1Cl)Nc1ccc(C(F)(F)F)cc1Cl here?
A: The Potency was inconclusive: 10 µM [inhibitor, single point].

Q: With CC(=O)NC[C@H]1CCN(S(=O)(=O)c2cccc(C#N)c2)C[C@H]1N(C)C as the compound, how does the “activity, negative = inhibition” value read?
A: The value was inactive: -0.144%.

Q: With O=C(N1CCC(c2noc(C3CC3)n2)C1)C1(c2ccccc2)CC1 (stereo not given) as the compound, how does the Potency read?
A: The Potency was inconclusive: 1.41 µM [inhibitor, partial curve, poor fit].

Q: Which Potency does the source give for CCN(Cc1ccccc1)S(=O)(=O)c1cc(Br)cc2c1N(C(=O)C1CC1)CC2 here?
A: Its Potency is active: 7.94 µM.

Q: Which “activity, negative = inhibition” value does the source give for CCOc1cccc(CNC(=O)c2noc(-c3ccc(F)cc3)n2)c1 here?
A: Its value is inactive: 30.6%.

Q: With COc1ccccc1C(=O)N1CCC(n2c(=O)[nH]c3ccccc32)CC1 as the compound, how does the “activity, negative = inhibition” value read?
A: The value was inactive: -3.33%.

Q: Which Potency does the source give for Cc1cccc(NC(=O)N2CCCC(c3nn(C)c(=O)n3C3CCCC3)C2)c1 (stereo not given) here?
A: Its Potency is inconclusive: 6.31 µM [inhibitor, partial curve, poor fit].

Q: With COCCN1C(=O)c2ccccc2C(C(=O)Nc2cccc(C)n2)C12CCCCC2 (stereo not given) as the compound, how does the “outcome” value read?
A: The value was “inactive”.

Q: For Cc1ccc2onc(CC(=O)N3CCN(c4cccc(Cl)c4)CC3)c2c1, which activity, negative = inhibition is on record?
A: The activity, negative = inhibition was inconclusive: -43.9% [inhibitor] [at 0.594 µM].

Q: Which “activity, negative = inhibition” value does the source give for CCOCCC(=O)N1CCCC(c2cc(N3CCOCC3)nc(C)n2)C1 (stereo not given) here?
A: The value was inactive: -16.6%.

Q: For Cc1nn2c(c1-c1ccccc1N1CCCC1)N(C(=O)c1cc3ccccc3n1C)CCC2, which Potency is on record?
A: The Potency was inconclusive: 3.55 µM [inhibitor, partial curve, poor fit].

Q: For CC(C)(C)c1ccc(C(=O)Nc2ccc(-c3nc4ccccc4o3)c(O)c2)cc1, which Potency is on record?
A: The Potency was inconclusive: 17.8 µM [inhibitor, partial curve, poor fit].

Q: Which Potency does the source give for CCc1nc2cc(N3CCC(C(=O)NCc4ccccc4F)CC3)cnc2nc1CC here?
A: The Potency was inconclusive: 3.98 µM [inhibitor, single point].

Q: With COc1cccc(CNC(=O)N2CCC(Oc3ncccc3C(=O)N3CCCCC3)C2)c1 (stereo not given) as the compound, how does the Potency read?
A: Its Potency is inconclusive: 3.98 µM [inhibitor, single point].

Q: Which Potency does the source give for CCC(CC)CN1CCOCCNC(=O)CC1 here?
A: Its Potency is inconclusive: 20 µM [inhibitor, single point].

Q: For COc1ccc(CN2CCC(O)(CN3CCCCC3)C2)cc1Cl (stereo not given), which Potency is on record?
A: Its Potency is inconclusive: 12.6 µM [inhibitor, partial curve, poor fit].

Q: With CN1C[C@H](O)C[C@H]1c1nnc2n1CCN(Cc1ccc3c(c1)CCO3)C2 as the compound, how does the “activity, negative = inhibition” value read?
A: The value was inactive: -6.31%.

Q: Which Potency does the source give for Cc1ccc(C(=O)N2CCC(N3CCCNC3=O)CC2)cc1 here?
A: The Potency was “inactive”.

Q: For O=C1Nc2ccc(-c3cccc(C(F)(F)F)c3)cc2C(=O)N2CCN(C(=O)C3CCNCC3)C[C@H]12, which Potency is on record?
A: The Potency was inconclusive: 1.78 µM [inhibitor, partial curve, poor fit].

Q: For COc1cccc(NC(=O)Nc2ccc3c(c2)N(C)C(=O)c2ccccc2S3)c1, which Potency is on record?
A: Its Potency is active: 12.6 µM.

Q: For CCCc1noc(-c2cn(C3CCN(C(=O)c4ccoc4)CC3)nn2)n1, which “outcome” value is on record?
A: The value was “inactive”.

Q: With CCCCOC(=O)c1c(C)oc2c1cc(NS(=O)(=O)c1cc(OC)ccc1OC)c1ccccc12 as the compound, how does the Potency read?
A: The Potency was inconclusive: 11.2 µM [inhibitor, partial curve, poor fit].

Q: With CCOc1ccc(-c2nnc(SCC(=O)Nc3cccc(C#N)c3)o2)cc1 as the compound, how does the Potency read?
A: Its Potency is inconclusive: 17.8 µM [inhibitor, single point].

Q: With COc1cccc(CN2C[C@@H]3C[C@H]2C(=O)Nc2ccccc2O3)c1 as the compound, how does the Potency read?
A: Its Potency is inconclusive: 31.6 µM [inhibitor, single point].

Q: Which Potency does the source give for O=C1CC2(CCN(C(=O)c3ccc(Cl)cc3)CC2)Oc2cc(Cl)ccc21 here?
A: The Potency was inconclusive: 7.08 µM [inhibitor, partial curve].

Q: With CCCCC(=O)N1CCC(N(Cc2ccccc2)C2CCOCC2)CC1 as the compound, how does the Potency read?
A: The Potency was inconclusive: 5.62 µM [inhibitor, partial curve, poor fit].

Q: For Cc1cc(C(=O)N[C@H]2CCOC[C@H]2C2CCOCC2)cc2sc(N)nc12, which “activity, negative = inhibition” value is on record?
A: Its value is inactive: 2.88%.

Q: Which “activity, negative = inhibition” value does the source give for CCn1nc(C(C)C)cc1C(=O)N1CCc2onc(-c3cccc(F)c3)c2C1 here?
A: The value was inactive: -23.8%.

Q: Which Potency does the source give for Cc1ccc(NC(=O)N2CCC(n3c(C)cnc3C3CCOCC3)CC2)cc1C here?
A: The Potency was inconclusive: 1.41 µM [inhibitor, partial curve, poor fit].

Q: Which Potency does the source give for O=C(NC[C@H]1OC[C@@H](NCc2ccccc2F)[C@@H]1O)Nc1ccccc1 here?
A: Its Potency is inconclusive: 1.58 µM [inhibitor, partial curve].

Q: Which Potency does the source give for Cc1ccc(S(=O)(=O)c2nnn3c2nc(N2CCOCC2)c2ccccc23)cc1 here?
A: Its Potency is inconclusive: 8.91 µM [inhibitor, partial curve, poor fit].

Q: Which “activity, negative = inhibition” value does the source give for O=C(O)CCC(=O)N1CCN(C2CCNCC2)C(=O)C1 here?
A: The value was inactive: 10.7%.

Q: For CN1CC(=O)N(c2ccc(Cl)cc2)Cc2c(NCc3cccs3)ncnc21, which “outcome” value is on record?
A: The value was “inactive”.

Q: With CN(CC1CCOCC1)C(=O)c1cccc(Br)c1 as the compound, how does the “activity, negative = inhibition” value read?
A: The value was inactive: -15.8%.

Q: With CC(CCc1ccccc1)Nc1ncnc2c1CN(C1CCNC1)C(=O)CN2C (stereo not given) as the compound, how does the Potency read?
A: Its Potency is inconclusive: 12.6 µM [inhibitor, single point].

Q: With Cn1cnc(C(=O)N2CCCCCCn3c(nnc3-c3ccc(F)cc3)CC2)c1 as the compound, how does the “activity, negative = inhibition” value read?
A: The value was inactive: -9.26%.

Q: With CCOc1ccc(C(=O)N2CCC(c3nnc(Cn4cccn4)n3C)CC2)o1 as the compound, how does the “activity, negative = inhibition” value read?
A: The value was inactive: -13.7%.

Q: With O=C(NCc1ccncc1)c1cn(C2CN(C(=O)Nc3ccc4c(c3)OCCO4)C2)nn1 as the compound, how does the “activity, negative = inhibition” value read?
A: Its value is inactive: -11%.

Q: Which Potency does the source give for NCc1cccc(-c2cccs2)c1 here?
A: Its Potency is inconclusive: 11.2 µM [inhibitor, single point].

Q: Which Potency does the source give for Cc1ccc(C)c(NC(c2ccccc2)c2nnc(-c3ccccc3F)o2)c1 (stereo not given) here?
A: Its Potency is inconclusive: 20 µM [inhibitor, single point].

Q: With COc1ccc(C2Cn3nnc(C(=O)N4CCN(C(=O)c5ccc(F)cc5)CC4)c3CO2)cc1 (stereo not given) as the compound, how does the Potency read?
A: The Potency was inconclusive: 12.6 µM [inhibitor, single point].

Reference: PubChem BioAssay AID1347417 (National Center for Advancing Translational Sciences (NCATS), 2020)
